This note sets out measurements from the supplement of paper PMC10126150.

Values marked as one replicate rest on one cluster of the flow cell; about a third of the high ones do not repeat.
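Note: ATP exposure 15 min at 22 °C before imaging.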

The test system of the data set is ATP. Put plainly: switch fluorescence ratio, 500 uM ATP over buffer (Cy3 cluster intensity, sum of 5 cycles each) (fold (ratio)); higher = stronger signal-on switching upon ATP binding; sequences stand for … in TCGTCGGCAGCGTCAGATGTGTATAAGAGACAGTTTTTTTTTTTTTTTTTTTTTTTTT…TC. The settings on record: aptamer strand: ATP DNA aptamer (quencher-CACCTGGGGGAGTATTGCGGAGGAAGG + anchor), 100 nM annealed; ATP concentration: 500 uM; one replicate. The essentials:
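Per cluster, summed Cy3 intensity from the target cycles was divided by that from the buffer cycles to give the fluorescence ratio, then averaged per switch-domain sequence. Clusters outside 100-1000 RFU were excluded. The Cy3-labelled switching-strand clusters, on a modified Illumina MiSeq flow-cell, were annealed to 100 nM quencher-labelled ATP aptamer and imaged in selection buffer, then after 15 min with 500 uM ATP at 22 °C, for five cycles with NaOH stripping and re-annealing between them.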
As to ATGCCAAAGT, the switch fluorescence ratio came to 1.02. As for GGGTTGCTA, the figure is 1.04; as for TTAGAGCATC, 1.02; as for ACGAGATGAG, 1.04.

In the case of TCATGGGATT, the switch fluorescence ratio came out at 0.999.

In the case of GGGTCCGATA, the switch fluorescence ratio worked out at 0.998. To TATTACGGAA belongs 1.01; to CACTTTTGTC, 1.07; to CTTAGAACAG, 0.989.

With CACGTTGCAA, the switch fluorescence ratio was determined as 0.953.

Turning to CGCCCAGGGT, the switch fluorescence ratio turned out to be 4.51.

With CGAGAAGCGC, the switch fluorescence ratio is 1.06.

Consider CTGGGAAATC, for which the switch fluorescence ratio worked out at 0.978. To TCAACGCATT belongs 2.09. For TGGGTATCGC, the switch fluorescence ratio was 0.991.

Regarding CGCTTGTTAC, the switch fluorescence ratio stood at 2.08.

For the sequence CACTGGGCTG, the switch fluorescence ratio is 0.952. Take AGTTCTCGGA: the switch fluorescence ratio was 0.965. As for GGAGAAGGAG, the figure is 1.05. As for TGTTCAGCTC, the figure is 1.34.

For the sequence CTGGGTGCGG, the switch fluorescence ratio was 0.985. To CCTTAAATTC belongs 1.44; to GCTTCGGCGG, 1.08; to AAAGGGCT, 0.976. GAGGGATGCG: the switch fluorescence ratio came to 1.01. Turning to ATACGCTTTC, the switch fluorescence ratio is 1.52. To TCGGCTGCAG belongs 1.03; to AGTTGCTCGC, 1.05. As for CCAATGCGGA, the figure is 1.11. As to GCGCGAGCGT, the switch fluorescence ratio turned out to be 0.928. As for GAAGGATACT, the figure is 1.02; as for TCTACATATA, 1.03; as for ACGTGACTGC, 1.25. In the case of CGAGTTACAG, the switch fluorescence ratio worked out at 1.02.

AGTCATAAAT: the switch fluorescence ratio is 0.964. To GACCACATAT belongs 1.1; to GATTCTGCAT, 1.08. With ATATTGCGG, the switch fluorescence ratio amounted to 1.01. For CATAAGAATC, the switch fluorescence ratio worked out at 0.976. As for TTGAATTAG, the figure is 0.956; as for TTCGGCATTT, 0.993; as for GGCCGCATGT, 1.42. In the case of TATTTGTTT, the switch fluorescence ratio worked out at 1. CGGAGTTAGA: the switch fluorescence ratio is 1.04. For TCTTTGTGGC, the switch fluorescence ratio turned out to be 1.04. As for ACTTATGTTT, the figure is 1.02; as for TTTCCATTAC, 1.14. Turning to AGTAGGTTG, the switch fluorescence ratio turned out to be 0.996. For GATCGGTGA, the switch fluorescence ratio amounted to 1.03. For TGTGGTCTTA, the switch fluorescence ratio is 1.02.

In the case of CCTGACAGGC, the switch fluorescence ratio came to 1.02.

In the case of GCAACGTAGT, the switch fluorescence ratio was 0.982. Consider TAGGTGAT, for which the switch fluorescence ratio was determined as 1.

In the case of GTGAGATGCT, the switch fluorescence ratio turned out to be 0.989. For ACAGGCGGGA, the switch fluorescence ratio is 1.07. To CGGACATGAT belongs 1.04. As for GGATAGTAAA, the figure is 1.01. To TAGTATGTTA belongs 0.99; to CTAATTAGTT, 1.01. Turning to TGTCGGATTC, the switch fluorescence ratio came to 1.01. To CGTGCGCTGT belongs 1.06; to TTCCCTACGC, 2.41; to CGGGCGTAGC, 1.1. Take CTGGCCCGGA: the switch fluorescence ratio is 0.975.

Consider TTATCTATAA, for which the switch fluorescence ratio came out at 1.02.

For the sequence CCGTACCGGC, the switch fluorescence ratio turned out to be 1.06. To TTTGACTACC belongs 1.18.
